The text below walks through data of PMC6310259.

These are yes or no findings as the source states them, for the method shown. For some of these results: In cells and extracts the contact can be indirect. Some binding calls cover weakened binding; strength is not graded here. Tags and fused reporters may be left off the sequences shown.

For test [1], the target named is T1, BOP1, BiFC fusion (Arabidopsis thaliana) (UniProt Q9M1I7).
T1 sequence: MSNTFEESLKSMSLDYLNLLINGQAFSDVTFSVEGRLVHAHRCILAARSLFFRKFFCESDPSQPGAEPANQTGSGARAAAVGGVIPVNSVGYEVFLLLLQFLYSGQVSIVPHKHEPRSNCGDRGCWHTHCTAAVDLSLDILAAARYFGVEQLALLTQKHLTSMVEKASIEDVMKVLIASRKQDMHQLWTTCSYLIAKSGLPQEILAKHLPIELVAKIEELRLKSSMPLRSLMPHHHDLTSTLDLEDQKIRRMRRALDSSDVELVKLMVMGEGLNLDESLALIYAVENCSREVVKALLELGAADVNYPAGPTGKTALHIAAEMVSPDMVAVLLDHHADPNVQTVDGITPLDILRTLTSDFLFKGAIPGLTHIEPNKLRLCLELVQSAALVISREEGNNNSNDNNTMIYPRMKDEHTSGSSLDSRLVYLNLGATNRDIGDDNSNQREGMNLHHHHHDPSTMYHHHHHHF
The test is described as follows: split reporter; BiFC in N. benthamiana leaves, agroinfiltrated; 1 mM SA one day before visualization; first protein fused with the N-terminal part of GFP, second with the C-terminal; confocal microscopy.

Test [2] addresses T2, BOP2, BiFC fusion (Arabidopsis thaliana) (UniProt Q9ZVC2).
T2 sequence: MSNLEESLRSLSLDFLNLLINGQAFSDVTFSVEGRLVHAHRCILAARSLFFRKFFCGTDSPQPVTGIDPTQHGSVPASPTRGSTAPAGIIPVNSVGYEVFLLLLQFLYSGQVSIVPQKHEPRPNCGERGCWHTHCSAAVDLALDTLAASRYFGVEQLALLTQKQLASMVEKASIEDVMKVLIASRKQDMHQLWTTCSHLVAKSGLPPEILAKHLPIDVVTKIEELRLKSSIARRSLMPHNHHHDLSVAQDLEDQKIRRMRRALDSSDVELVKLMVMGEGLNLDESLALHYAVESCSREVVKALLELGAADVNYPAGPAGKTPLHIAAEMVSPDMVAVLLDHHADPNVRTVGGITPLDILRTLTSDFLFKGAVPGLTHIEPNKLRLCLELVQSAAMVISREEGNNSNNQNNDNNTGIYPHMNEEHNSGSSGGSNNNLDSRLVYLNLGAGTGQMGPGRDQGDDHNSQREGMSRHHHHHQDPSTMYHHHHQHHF
The test is described as above.

Test [3] concerns the target T3, NPR2, BiFC fusion (Arabidopsis thaliana) (UniProt Q9SZI3).
T3 sequence: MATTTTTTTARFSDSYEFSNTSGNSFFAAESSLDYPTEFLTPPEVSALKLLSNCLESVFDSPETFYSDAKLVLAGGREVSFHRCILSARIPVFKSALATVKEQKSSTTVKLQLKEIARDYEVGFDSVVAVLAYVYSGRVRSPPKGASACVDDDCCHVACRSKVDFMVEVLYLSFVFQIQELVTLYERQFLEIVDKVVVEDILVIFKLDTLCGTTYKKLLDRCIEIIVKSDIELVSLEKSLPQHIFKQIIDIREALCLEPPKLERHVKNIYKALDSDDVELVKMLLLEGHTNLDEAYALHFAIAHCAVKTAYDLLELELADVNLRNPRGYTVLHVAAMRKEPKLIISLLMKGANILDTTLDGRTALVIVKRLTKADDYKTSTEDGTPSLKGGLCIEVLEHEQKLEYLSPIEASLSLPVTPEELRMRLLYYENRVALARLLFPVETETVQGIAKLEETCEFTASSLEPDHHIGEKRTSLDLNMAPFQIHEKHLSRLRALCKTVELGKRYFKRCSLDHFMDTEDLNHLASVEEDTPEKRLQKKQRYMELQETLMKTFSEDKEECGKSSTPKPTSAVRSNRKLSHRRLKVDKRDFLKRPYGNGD
Described as above.

Test [4] addresses T4, NPR2, yeast two-hybrid fusion (Arabidopsis thaliana) (UniProt Q9SZI3).
T4 sequence: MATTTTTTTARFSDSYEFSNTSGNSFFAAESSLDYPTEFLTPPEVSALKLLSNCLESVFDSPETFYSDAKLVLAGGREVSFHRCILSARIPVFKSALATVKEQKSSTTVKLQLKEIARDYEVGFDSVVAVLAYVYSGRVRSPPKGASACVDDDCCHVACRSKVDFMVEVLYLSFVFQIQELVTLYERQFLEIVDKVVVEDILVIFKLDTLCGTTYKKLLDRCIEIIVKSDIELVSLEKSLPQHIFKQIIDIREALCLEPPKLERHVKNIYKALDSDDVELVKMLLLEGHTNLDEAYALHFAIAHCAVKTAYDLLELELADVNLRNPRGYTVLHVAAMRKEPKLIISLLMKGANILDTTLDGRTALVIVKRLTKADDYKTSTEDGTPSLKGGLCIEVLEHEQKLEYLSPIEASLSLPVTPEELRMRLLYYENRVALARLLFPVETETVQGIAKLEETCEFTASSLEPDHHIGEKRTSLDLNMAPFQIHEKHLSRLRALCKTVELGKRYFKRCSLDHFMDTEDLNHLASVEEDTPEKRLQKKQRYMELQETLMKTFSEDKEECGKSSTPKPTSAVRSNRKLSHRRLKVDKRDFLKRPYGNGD
The test is described as follows: two-hybrid; NPR1 paralogs against each other (Fig 5); growth on -His, 5 mM or less 3AT when indicated; result told for plates with and without SA alike, or without naming the plate.

For test [5], the target named is T5, NPR4, yeast two-hybrid fusion (Arabidopsis thaliana) (UniProt Q5ICL9).
T5 sequence: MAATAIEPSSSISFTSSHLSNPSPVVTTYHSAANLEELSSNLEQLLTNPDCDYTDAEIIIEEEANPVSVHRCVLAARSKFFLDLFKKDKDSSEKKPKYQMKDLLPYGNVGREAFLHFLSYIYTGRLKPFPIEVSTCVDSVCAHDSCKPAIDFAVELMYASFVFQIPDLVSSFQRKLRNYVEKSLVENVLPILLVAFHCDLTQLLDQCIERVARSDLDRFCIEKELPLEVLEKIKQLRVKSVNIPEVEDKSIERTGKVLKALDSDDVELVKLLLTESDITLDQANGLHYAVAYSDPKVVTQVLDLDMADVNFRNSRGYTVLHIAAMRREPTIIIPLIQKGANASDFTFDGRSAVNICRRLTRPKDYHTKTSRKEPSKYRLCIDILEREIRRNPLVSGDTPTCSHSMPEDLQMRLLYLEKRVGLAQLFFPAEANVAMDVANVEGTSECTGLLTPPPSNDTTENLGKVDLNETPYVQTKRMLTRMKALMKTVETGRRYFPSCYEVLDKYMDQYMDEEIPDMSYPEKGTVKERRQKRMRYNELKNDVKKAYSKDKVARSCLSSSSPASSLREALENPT
The test is described as above.

Test [6] concerns the target T5, NPR4, yeast two-hybrid fusion (Arabidopsis thaliana). The test is described as follows: two-hybrid; NPR1 paralogs against each other (Fig 5); growth on -His in the presence of 100 μM SA.
The target in test [7] is T6, NON EXPRESSER OF PATHOGENESIS RELATED 1 (NPR1), yeast two-hybrid fusion (Arabidopsis thaliana), P93002.
T6 chain: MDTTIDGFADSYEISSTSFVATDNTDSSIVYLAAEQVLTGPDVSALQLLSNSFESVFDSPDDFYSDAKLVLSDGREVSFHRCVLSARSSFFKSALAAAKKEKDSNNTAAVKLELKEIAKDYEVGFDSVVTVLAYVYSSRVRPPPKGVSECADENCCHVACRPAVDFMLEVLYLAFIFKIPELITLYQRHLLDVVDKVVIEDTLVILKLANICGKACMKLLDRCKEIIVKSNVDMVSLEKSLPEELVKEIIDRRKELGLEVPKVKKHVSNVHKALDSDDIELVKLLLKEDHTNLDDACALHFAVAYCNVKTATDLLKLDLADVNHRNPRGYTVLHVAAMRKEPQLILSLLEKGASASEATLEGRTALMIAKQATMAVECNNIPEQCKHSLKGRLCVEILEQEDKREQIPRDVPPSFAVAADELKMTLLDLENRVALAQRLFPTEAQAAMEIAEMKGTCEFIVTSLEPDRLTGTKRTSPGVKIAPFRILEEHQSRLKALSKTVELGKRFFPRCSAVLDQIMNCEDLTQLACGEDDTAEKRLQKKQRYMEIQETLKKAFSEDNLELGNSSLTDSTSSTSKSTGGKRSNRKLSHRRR
The test is described as follows: two-hybrid; NPR1 paralogs against each other (Fig 5); growth on -His in the absence of SA, 0 to 5 mM 3AT. The settings on record: remark: other sources report otherwise.

With “NPR1, BiFC fusion (from UniProt P93002 1-593)”, the binding result in test [1], in test [2] and in test [3] was “binds” in each case. On to “NON EXPRESSER OF PATHOGENESIS RELATED 1 (NPR1), yeast two-hybrid fusion (from UniProt P93002 1-593)”, for which the binding result in test [4] is “binds”.

B1: BLADE ON PETIOLE 1 (BOP1), yeast two-hybrid fusion (protein, UniProt Q9M1I7 1-467)
chain: MSNTFEESLKSMSLDYLNLLINGQAFSDVTFSVEGRLVHAHRCILAARSLFFRKFFCESDPSQPGAEPANQTGSGARAAAVGGVIPVNSVGYEVFLLLLQFLYSGQVSIVPHKHEPRSNCGDRGCWHTHCTAAVDLSLDILAAARYFGVEQLALLTQKHLTSMVEKASIEDVMKVLIASRKQDMHQLWTTCSYLIAKSGLPQEILAKHLPIELVAKIEELRLKSSMPLRSLMPHHHDLTSTLDLEDQKIRRMRRALDSSDVELVKLMVMGEGLNLDESLALIYAVENCSREVVKALLELGAADVNYPAGPTGKTALHIAAEMVSPDMVAVLLDHHADPNVQTVDGITPLDILRTLTSDFLFKGAIPGLTHIEPNKLRLCLELVQSAALVISREEGNNNSNDNNTMIYPRMKDEHTSGSSLDSRLVYLNLGATNRDIGDDNSNQREGMNLHHHHHDPSTMYHHHHHHF
As for B1, the binding result in test [4] and in test [5] was “binds” throughout.

B2: NPR3, yeast two-hybrid fusion (protein, UniProt Q8L746 1-586)
chain: MATLTEPSSSLSFTSSHFSYGSIGSNHFSSSSASNPEVVSLTKLSSNLEQLLSNSDCDYSDAEIIVDGVPVGVHRCILAARSKFFQDLFKKEKKISKTEKPKYQLREMLPYGAVAHEAFLYFLSYIYTGRLKPFPLEVSTCVDPVCSHDCCRPAIDFVVQLMYASSVLQVPELVSSFQRRLCNFVEKTLVENVLPILMVAFNCKLTQLLDQCIERVARSDLYRFCIEKEVPPEVAEKIKQLRLISPQDEETSPKISEKLLERIGKILKALDSDDVELVKLLLTESDITLDQANGLHYSVVYSDPKVVAEILALDMGDVNYRNSRGYTVLHFAAMRREPSIIISLIDKGANASEFTSDGRSAVNILRRLTNPKDYHTKTAKGRESSKARLCIDILEREIRKNPMVLDTPMCSISMPEDLQMRLLYLEKRVGLAQLFFPTEAKVAMDIGNVEGTSEFTGLSPPSSGLTGNLSQVDLNETPHMQTQRLLTRMVALMKTVETGRRFFPYGSEVLDKYMAEYIDDDILDDFHFEKGSTHERRLKRMRYRELKDDVQKAYSKDKESKIARSCLSASSSPSSSSIRDDLHNTT
For the molecule B2, the binding entry in test [6] is “binds”.

B3: NON EXPRESSER OF PATHOGENESIS RELATED 1 (NPR1), yeast two-hybrid fusion, P93002 1-593 (protein)
chain: MDTTIDGFADSYEISSTSFVATDNTDSSIVYLAAEQVLTGPDVSALQLLSNSFESVFDSPDDFYSDAKLVLSDGREVSFHRCVLSARSSFFKSALAAAKKEKDSNNTAAVKLELKEIAKDYEVGFDSVVTVLAYVYSSRVRPPPKGVSECADENCCHVACRPAVDFMLEVLYLAFIFKIPELITLYQRHLLDVVDKVVIEDTLVILKLANICGKACMKLLDRCKEIIVKSNVDMVSLEKSLPEELVKEIIDRRKELGLEVPKVKKHVSNVHKALDSDDIELVKLLLKEDHTNLDDACALHFAVAYCNVKTATDLLKLDLADVNHRNPRGYTVLHVAAMRKEPQLILSLLEKGASASEATLEGRTALMIAKQATMAVECNNIPEQCKHSLKGRLCVEILEQEDKREQIPRDVPPSFAVAADELKMTLLDLENRVALAQRLFPTEAQAAMEIAEMKGTCEFIVTSLEPDRLTGTKRTSPGVKIAPFRILEEHQSRLKALSKTVELGKRFFPRCSAVLDQIMNCEDLTQLACGEDDTAEKRLQKKQRYMEIQETLKKAFSEDNLELGNSSLTDSTSSTSKSTGGKRSNRKLSHRRR
With B3, in test [7], the binding entry is reported as “binds”.

B4: BOP2, yeast two-hybrid fusion (protein, UniProt Q9ZVC2 1-491)
chain: MSNLEESLRSLSLDFLNLLINGQAFSDVTFSVEGRLVHAHRCILAARSLFFRKFFCGTDSPQPVTGIDPTQHGSVPASPTRGSTAPAGIIPVNSVGYEVFLLLLQFLYSGQVSIVPQKHEPRPNCGERGCWHTHCSAAVDLALDTLAASRYFGVEQLALLTQKQLASMVEKASIEDVMKVLIASRKQDMHQLWTTCSHLVAKSGLPPEILAKHLPIDVVTKIEELRLKSSIARRSLMPHNHHHDLSVAQDLEDQKIRRMRRALDSSDVELVKLMVMGEGLNLDESLALHYAVESCSREVVKALLELGAADVNYPAGPAGKTPLHIAAEMVSPDMVAVLLDHHADPNVRTVGGITPLDILRTLTSDFLFKGAVPGLTHIEPNKLRLCLELVQSAAMVISREEGNNSNNQNNDNNTGIYPHMNEEHNSGSSGGSNNNLDSRLVYLNLGAGTGQMGPGRDQGDDHNSQREGMSRHHHHHQDPSTMYHHHHQHHF
With B4, the binding result in test [4] and in test [5] was “binds” each time.
